Results taken from PMC6212790.
The other results are listed elsewhere or left out. At the low end of the ranking, values are background and their order means little.

molecular target: T1, GST-Rok-C97-191 (UniProt O34857); experiment: protein binding microarray; details: Rok is a gene silencer of Bacillus subtilis; high values mean tight binding; most listed sequences are background and not binding sites; double strand, one strand shown;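 note: rank score from −0.5 (least bound) to 0.5 (best bound)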
T1 sequence: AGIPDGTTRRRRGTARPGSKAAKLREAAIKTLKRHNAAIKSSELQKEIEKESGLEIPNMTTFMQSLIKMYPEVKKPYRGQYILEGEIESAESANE

Sequence | binding signal [E-score]
ATGTAAGG | -0.138
TACATAGA | 0.224
GCACCTGC | -0.198
CGTGCAAC | -0.129
CATGATGG | -0.0573
TTAAGCAA | 0.0224
TCCGCCCA | -0.321
ACCGTATA | 0.151
ATATGTTA | 0.331
GAGCCAAC | -0.253
ACTGTAGG | 0.113
GGTCCAAA | -0.186
GCCGAGAA | -0.0598
CCACGTTC | 0.0651
AGCTTCCC | -0.028
AGATGCAT | 0.0308
CCCAAGTA | 0.0835
CAGTAACA | 0.114
CCCCTGCC | -0.348
ACAGAGCT | -0.0478
GCGTCAGA | -0.213
ATAGGACC | 0.00808
AAATAACG | 0.211
ACACAACA | 0.113
ACAAACGA | 0.109

Sequence | binding signal [E-score]
GATGAAAC | -0.0416
GAACCAAA | -0.0881
TCTAGCCA | 0.0129
CAGAAAAG | 0.0765
AGCGGTCG | -0.138
CTGGAACA | -0.13
CACTAGAG | -0.181
AGTTGCAA | 0.136
GGACAATA | -0.0723
CCTCTATA | 0.0169
GTCTTGTA | 0.0394
CATAACGG | -0.0641
TCAGTAGA | 0.307
AGCCAAGG | -0.209
CCAGAAAG | -0.066
GATCTACA | 0.29
CGGAGTTA | 0.0606
GCCCTCGC | -0.334
CTGGACGA | -0.165
CTGGAAAA | 0.107
GTCAGCAA | -0.0683
TGGATACA | 0.0228
CACGAAAA | -0.0184
ATAGAGCA | -0.101
CCTGCTTA | -0.0481

Sequence | binding signal [E-score]
GACGGCCA | -0.126
CTAAGCGC | -0.106
ATCAGCAT | 0.00687
CAGTGCCA | 0.0139
AGCAGGGA | -0.211
GATTAGCA | -0.0905
CGTTAGTA | 0.0633
CACTAGTA | 0.253
CGCAATTC | 0.141
ACATTAGC | 0.0793
CAGTCAAA | -0.138
AGTAACAT | 0.127
ATGGCTAC | -0.124
AGATGGCA | -0.115
AAACACAT | 0.108
AATAACTG | 0.167
AATGAGGA | -0.0807
ACTGGCCT | -0.278
CTATTGTC | -0.0498
AGCGCTAC | 0.144
CGAGTTGA | 0.17
ACCGATAG | 0.074
ACCGATCT | 0.104
GGTCAAAC | -0.117
ACTATTGA | 0.225

Sequence | binding signal [E-score]
ATTTTAAC | 0.203
GCGAGCAC | -0.273
ACAGCGGG | -0.26
AAGGCTTC | -0.21
GGTAACTA | 0.336
CAAGGATG | -0.044
CCGTACTC | 0.0243
CTTATCAA | 0.0662
AGCTCCGC | -0.213
GATATCCC | -0.0628
AAACGTCT | -0.164
ACCCTAAT | -0.031
GTTCACAA | 0.0752
GCTGGTAC | 0.107
ATACCTAA | 0.238
AGAGAAAG | 0.159
AAAAACCG | 0.018
CCATGGCG | -0.0861
GACGAAGA | -0.0457
GATAGTCC | -0.234
CCGAGTGC | -0.133
CACGGCGA | -0.0927
CCTTCCTA | -0.0804
ATCTGCGA | -0.112
ATAGAGGA | 0.0897

Sequence | binding signal [E-score]
CAGCGGGC | -0.264
TCGCAGCA | -0.203
CTTACCAA | 0.0678
ACCCGGAG | 0.000729
AACTTTAA | 0.131
CCCATGAG | 0.0334
CGAGGGGA | -0.265
TCTAGACA | 0.0238
GTTACAAC | 0.267
AACGGCAG | -0.155
CAAGACTC | -0.206
ACTCTCAT | -0.0289
ATTTCGAC | 0.0925
CGTCCGTC | -0.267
ATAACGAC | -0.0184
AGGATTTG | -0.0211
AACTGCAA | 0.111
CTTCCCGC | -0.277
CCAGCGTA | -0.066
AATGCTAC | 0.25
CTGAGGTA | 0.0561
AGCCCTGG | -0.185
ATTTCTGG | 0.0299
AAGAAGCC | -0.116
CTATGGGC | 0.0692

Sequence | binding signal [E-score]
ACCCAACC | 0.0339
GACCTATA | 0.228
CCGCGGAA | -0.0786
GCAAAGAC | -0.0775
ACGAGTTC | 0.0249
GCGAAGAC | -0.123
GGTGCGAA | -0.0566
CGTGGGGC | -0.25
GTTCCCAA | -0.143
GTAAGTGA | 0.106
GCTAGGCA | -0.0675
CAAGGGAA | -0.0966
ATCAGCCG | -0.22
CATTGGCG | -0.169
ACATAAAA | 0.0739
CACTGCAC | -0.046
AAGTTCAC | 0.104
CAGTCGGG | -0.0155
AGTAGTCA | 0.259
GCTGGCAC | -0.243
AAAGGTCT | -0.123
ACGGCGAG | -0.16
CACAGCTG | -0.208
GGCGTAGA | 0.0104
ATGGTCAA | 0.137

Sequence | binding signal [E-score]
ACGGCTCT | -0.158
ACTCATGA | -0.0428
ACGAATCA | 0.0562
ATGCTGCA | -0.0307
CCCAAATA | -0.0316
CTCTCCGA | -0.169
CAAGGTAA | 0.166
GCGCTCCC | -0.3
CTTCCGTC | -0.242
AGCCCGGC | -0.172
AAACCTTC | 0.0022
AAACTTTA | -0.0256
AGGAGAAC | -0.154
CTTATTAA | 0.117
CCCAGCAA | -0.12
ATGTCCTA | -0.0529
AAAAGGGA | -0.218
AAGGGCAA | -0.0609
GGACGACC | -0.234
CCGCTGTA | -0.0671
AATTGGAT | 0.0104
GGTAGTAC | 0.268
